This is an account of results in the RNAGym collection of RNA variant scans (doi:10.1101/gad.245936.114).

Sequences and labels used below:
B1: tRNA (parent)
chain: CUCUCGGUAGCCAAGUUGGUUUAAGGCGCAAGACUUUAAUUUAUCACUACGAAAUCUUGAGAUCGGGCGUUCGACUCGCCCCCGGGAGAUUUUUUCCUCGAGCAA

Variants at the floor of the assay are shown more often than the library holds them.

In this series the parent is B1. The experiment in a line: nonsense suppression (GFP-seq) (ratio to wild type); higher = more function; SUP4oc tRNA, yeast GFP reporter sort-seq. A digest of the protocol:
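Yeast were grown in raffinose/galactose medium with 80 mg/L adenine, each strain bearing a genome-integrated ochre-suppressor tRNA variant from a ~3% random-mutation library, a galactose-driven GFP ochre reporter, and RFP. After sorting into GFP/RFP bins, every bin was sequenced on an Illumina platform at phred ≥30. The GFPSEQ value, a measure of nonsense suppression, is the weighted bin median GFP/RFP relative to the unmutated parent tRNA, using each variant's estimated cell share per bin as the weight. Only variants with ≥100 reads and ≥30 cells were included.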
Regarding G15U U76G, the nonsense suppression is not above 0.026.
Turning to U35G G59U G86C, the nonsense suppression was not above 0.026.
A60C A62C A87G: the nonsense suppression was not above 0.026.
For the variant U17G U20C G26U A87U, the nonsense suppression is not above 0.026.
The result for C12A G15U C34G G65U reads not above 0.026; that for C11G U22G, not above 0.026.
Consider C68A C77U, for which the nonsense suppression was not above 0.026.
G67A A89U: the nonsense suppression is not above 0.026.
The same measure for G78U: 0.63.
Take G15A G26U U55A: the nonsense suppression was not above 0.026.
As to U58C A89U, the nonsense suppression was not above 0.026.
For the variant U16G C27G, the nonsense suppression was not above 0.026.
For the variant C34G G61U G67C, the nonsense suppression is not above 0.026.
Consider C11U A54G G69A, for which the nonsense suppression was not above 0.026.
The same measure for U17G G19A: 0.204; for C12G C29A G59C U76G: not above 0.026.
As to U4C G18C, the nonsense suppression is not above 0.026.
The result for U4C A13G C83U reads 0.334; that for U17G G67C C72G G78C A89C, not above 0.026; that for C1G C27U U57C G61A U70A, not above 0.026.
On to C1A C64A U76A, for which the nonsense suppression is not above 0.026.
The result for A33G G65U G86C reads not above 0.026.
For U4A A23C G85C, the nonsense suppression was not above 0.026.
With G15C U17C U20C C75G, the nonsense suppression is not above 0.026.
The result for G73C A87U reads not above 0.026; that for G18C U20A, not above 0.026.
For the variant G18U U57C G65U G85C, the nonsense suppression is not above 0.026.
As for G7C A54C C82A C83U, the nonsense suppression is not above 0.026.
On to A60G G73C, for which the nonsense suppression is not above 0.026.
Consider G15A U71C, for which the nonsense suppression was not above 0.026.
Take U21C G28C A62C: the nonsense suppression is not above 0.026.
In the case of U2G C5A A30G, the nonsense suppression was not above 0.026.
For the variant G7A U17C A24G G32U U71C A87U, the nonsense suppression is not above 0.026.
A33C U63C G78U A87C: the nonsense suppression was not above 0.026.
For the variant U57C C64U U71A U76C, the nonsense suppression was not above 0.026.
For G28U C82A, the nonsense suppression was not above 0.026.
The same measure for C12A U17A G18C U21G G26U U63C G88C: not above 0.026; for C27U G32A G73U: not above 0.026; for C5A C77G: not above 0.026.
The result for U4G G26U C27A U71G C77A reads not above 0.026; that for U71C G86U, not above 0.026.
As to C3G C11U G59U G85C, the nonsense suppression is not above 0.026.
A23U G78C A87U: the nonsense suppression was not above 0.026.
For C3U G78C, the nonsense suppression was not above 0.026.
The same measure for C11U G18U A24G C29U: not above 0.026; for C5G A30G G78C: not above 0.026.
The same measure for A54C C56G A60C G66A: not above 0.026.
The result for G26U G28A G66C reads not above 0.026; that for U58G C68U, not above 0.026; that for U57C A89G, not above 0.026.
With G15U G73C U76C, the nonsense suppression was not above 0.026.
Consider C3A G78C, for which the nonsense suppression is not above 0.026.
As to A13G A74G, the nonsense suppression was not above 0.026.
In the case of U16A U22G C79U, the nonsense suppression worked out at 0.208.
For the variant G7C G15U C27A A60C C80G A89G, the nonsense suppression is not above 0.026.
On to G19A C27U C29A A62U G84C, for which the nonsense suppression is not above 0.026.
The result for A24G G26A C29A C79A reads not above 0.026.
Regarding C1G C5A C12U, the nonsense suppression was not above 0.026.
The result for G10C A74C reads not above 0.026.
The result for U63G G65A reads not above 0.026.
With C5U A60U G65C, the nonsense suppression was not above 0.026.
For the variant U20A A23G C27U, the nonsense suppression was not above 0.026.
Regarding U16G C80G, the nonsense suppression is not above 0.026.
With C34U G69A A87G, the nonsense suppression is not above 0.026.
Turning to G15C C27G A30C G32A C80G G86C, the nonsense suppression is not above 0.026.
The same measure for G10C U17C: not above 0.026; for U8A C80G: not above 0.026.
As to G6U G10C A23C A60G U63A, the nonsense suppression is not above 0.026.
For C5U U16G U22C C56G C68G, the nonsense suppression is not above 0.026.
For C12U U16C G26U U63A A74C G88A, the nonsense suppression was not above 0.026.
As to U2G C27A U57C, the nonsense suppression was not above 0.026.
As for G32U C56A C72G, the nonsense suppression was not above 0.026.
The same measure for A30G G84C G88U: not above 0.026; for C5U U22C G88C: not above 0.026.
For C3G G6A U70G G73C A74C G88U, the nonsense suppression is not above 0.026.
For the variant A33G C56A U58A G69C, the nonsense suppression was not above 0.026.
As to A23U A89C, the nonsense suppression is not above 0.026.
On to C3A A9G G78C, for which the nonsense suppression was not above 0.026.
The result for C12G C27U U71C reads not above 0.026; that for C3U C11A U22C, not above 0.026; that for G86U A87G, not above 0.026.
In the case of U4C G6C U8C A23C A30U A54U U70C G88U, the nonsense suppression is not above 0.026.
As to A14C U16G A74G, the nonsense suppression was not above 0.026.
Consider U22A A87U, for which the nonsense suppression is not above 0.026.
C1A A23G G59U C82A: the nonsense suppression was not above 0.026.
The same measure for U17C G18A A89C: not above 0.026.
As to A14U G69C C75G C81A, the nonsense suppression is not above 0.026.
For the variant G7U U17G C27U A31G U57G, the nonsense suppression is not above 0.026.
With U22G U58A, the nonsense suppression was not above 0.026.
In the case of U2C C56G, the nonsense suppression was not above 0.026.
In the case of A54G G78A, the nonsense suppression is not above 0.026.
On to G25C U58G, for which the nonsense suppression was not above 0.026.
With U22C G84C, the nonsense suppression is not above 0.026.
Consider U21C C27A A33G U57C G88C, for which the nonsense suppression was not above 0.026.
With U4G C12A G15U G73C G86U, the nonsense suppression is not above 0.026.
Consider C34U A54C G67U, for which the nonsense suppression is not above 0.026.
The same measure for A14C G61A: not above 0.026; for C5U U17G G18U C56U G61C G78A: not above 0.026.
On to C5U U70C G84A, for which the nonsense suppression is not above 0.026.
G59U G67U: the nonsense suppression is not above 0.026.
Regarding G65C C80A A87G, the nonsense suppression was not above 0.026.
Consider C1G C5G A31C G73A, for which the nonsense suppression was not above 0.026.
Regarding U4G G59U C75U, the nonsense suppression is not above 0.026.
U8A C29U A33G U57G: the nonsense suppression is not above 0.026.
The result for U17C A30G A31G reads 0.0827; that for U55G A60C, not above 0.026; that for A62G G69C U76G G86A, not above 0.026.
In the case of U21C G78C, the nonsense suppression came to 0.211.
Regarding U20C A89C, the nonsense suppression was not above 0.026.
Consider A24U G85A, for which the nonsense suppression came to 0.327.
Take U8A C82G C83A: the nonsense suppression was not above 0.026.
Regarding U4G C12U C29U G84A, the nonsense suppression was not above 0.026.
As for U17G G67A, the nonsense suppression came out at 0.0593.
Take G6A C12A G88C: the nonsense suppression is not above 0.026.
On to C5G G10U, for which the nonsense suppression was not above 0.026.
Turning to U57G C83G, the nonsense suppression is not above 0.026.
U63A A89C: the nonsense suppression was not above 0.026.
Consider C5A A9U C34A G84C, for which the nonsense suppression was not above 0.026.
As for C83A A89C, the nonsense suppression was not above 0.026.
In the case of G32C G67A C72U, the nonsense suppression was not above 0.026.
The same measure for U21G C77G: not above 0.026; for C11U A14C G18U U63G: not above 0.026; for U58C G61U: not above 0.026.
The same measure for G26A C77A: not above 0.026; for G7C G26A C80A: not above 0.026; for U8G C11U A13C G32U G69A: not above 0.026.
For the variant U17C G26U C34A U76C, the nonsense suppression was not above 0.026.
The same measure for C77A G86C: not above 0.026; for U58A C72U: not above 0.026; for U4C C72U: not above 0.026.
On to U2C G18U C68A, for which the nonsense suppression is not above 0.026.
On to C56A C64U G73A A74U A89U, for which the nonsense suppression was not above 0.026.
The result for A60U C72G C77G reads not above 0.026; that for G18C A60U A89G, not above 0.026; that for A31U U58A C80A, not above 0.026.
As for U2A C29A A87C, the nonsense suppression was not above 0.026.
For A54C G86C, the nonsense suppression came out at 0.0725.
As to C3U G19A C72G, the nonsense suppression was not above 0.026.
The same measure for G32C C79U: not above 0.026; for U2C A30C U55G U70G C83U: not above 0.026; for C11U A24C A54C U58G G66A: not above 0.026.
In the case of C27U A62U C64U, the nonsense suppression is not above 0.026.
In the case of U2G G86A, the nonsense suppression is not above 0.026.
In the case of A9G U20C C64G G66U C68A, the nonsense suppression is not above 0.026.
With G67A C77G C82U, the nonsense suppression was not above 0.026.
For U63A G65A G66A, the nonsense suppression is not above 0.026.
U22C C29G A87U: the nonsense suppression was not above 0.026.
U8G G28A A30C A54U: the nonsense suppression is not above 0.026.
A14G C75G G85A: the nonsense suppression was not above 0.026.
In the case of C77A C81U, the nonsense suppression was not above 0.026.
The result for U4C A13G C29U reads 0.221.
The result for G15U G19C reads not above 0.026.
Consider G19A U71A, for which the nonsense suppression was not above 0.026.
U2A A13U C75G G85C: the nonsense suppression was not above 0.026.
On to U22C G67U U76A C82G G88C, for which the nonsense suppression was not above 0.026.
On to U21A G67C, for which the nonsense suppression is not above 0.026.
For U8G C27A G88U, the nonsense suppression was not above 0.026.
With C1U U21C, the nonsense suppression is not above 0.026.
For the variant U8A G69C, the nonsense suppression is not above 0.026.
Take C11G C77G G85U: the nonsense suppression was not above 0.026.
Regarding G25U G26C C27U U57A, the nonsense suppression is not above 0.026.
Consider C29G G73C G88U, for which the nonsense suppression is not above 0.026.
As for G10C C11U U20C C64U, the nonsense suppression was not above 0.026.
Regarding C1G A24U U63A, the nonsense suppression is not above 0.026.
For C12G G32U U55A, the nonsense suppression was not above 0.026.
For the variant G18C C29A C79A, the nonsense suppression is not above 0.026.
In the case of C1U U55A U57A A62U C64A A87U, the nonsense suppression is not above 0.026.
